Assay results taken from patent US20210169936A1 (AFFIMED, published 2021).

Target: T1, EpCAM on COLO 205 cells (UniProt P16422 24-314, limits assumed)
T1 sequence (looked up): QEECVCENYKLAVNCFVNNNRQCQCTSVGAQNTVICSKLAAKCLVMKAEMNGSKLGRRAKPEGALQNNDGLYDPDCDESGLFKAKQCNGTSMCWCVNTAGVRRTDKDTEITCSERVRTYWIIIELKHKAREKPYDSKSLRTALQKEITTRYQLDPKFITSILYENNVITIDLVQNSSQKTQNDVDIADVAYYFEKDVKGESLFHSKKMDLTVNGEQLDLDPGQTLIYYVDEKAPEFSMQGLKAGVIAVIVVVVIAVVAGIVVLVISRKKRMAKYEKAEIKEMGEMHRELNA
Assay: cell-based or functional assay

B1: EpCAM/NKp46 scFv-IgAb_73 (bispecific antibody)
heavy: QVQLVQSGAEVKKPGSSVKVSCKASGGTFSSYTISWVRQAPGQGLEWMGGIIPIFGTANYAQKFQGRVTITADESTSTAYMELSSLRSEDTAVYYCARGGSSGWWWGQGTLVTVSSASTKGPSVFPLAPSSKSTSGGTAALGCLVKDYFPEPVTVSWNSGALTSGVHTFPAVLQSSGLYSLSSVVTVPSSSLGTQTYICNVNHKPSNTKVDKKVEPKSCDKTHTCPPCPAPEFEGGPSVFLFPPKPKDTLMISRTPEVTCVVVAVSHEDPEVKFNWYVDGVEVHNAKTKPREEQYNSTYRVVSVLTVLHQDWLNGKEYKCKVSNKALPAPIEKTISKAKGQPREPQVYTLPPSREEMTKNQVSLTCLVKGFYPSDIAVEWESNGQPENNYKTTPPVLDSDGSFFLYSKLTVDKSRWQQGNVFSCSVMHEALHNHYTQKSLSLSPGGGGGSGGGGSGGGGSGGGGSGGGGSGGGGSDIQMTQSPASLSASVGETVTITCRVSENIYSYLAWYQQKQGKSPQLLVYNAKTLAEGVPSRFSGSGSGTQFSLKINSLQPEDFGSYYCQHHYGTPWTFGGGTKLEIKGGSGGSGGSGGSGGSGGSGGSEVQLQESGPGLVKPSQSLSLTCTVTGYSITSDYAWNWIRQFPGNKLEWMGYITYSGSTSYNPSLESRISITRDTSTNQFFLQLNSVTTEDTATYYCARGGYYGSSWGVFAYWGQGTLVTVSA
light: QSVLTQPPSASGTPGQRVIISCSGSHSNIGSNNVNWYQQLPGTAPKLLIYNNNQRPSGVPDRFSGSKSGTSASLAISGLQSEDESDYFCGTWDDSLNGPVFGGGTKLTVLGQPKAAPSVTLFPPSSEELQANKATLVCLISDFYPGAVTVAWKADSSPVKAGVETTTPSKQSNNKYAASSYLSLTPEQWKSHRSYSCQVTHEGSTVEKTVAPTECS
  Efficacy [%] of target cell lysis at an E:T ratio of 5:1, COLO 205, NK cells preloaded, frozen and thawed: 51.7%

B2: EpCAM/NKG2D scFv-IgAb_75 (bispecific antibody)
heavy: QVQLVQSGAEVKKPGSSVKVSCKASGGTFSSYTISWVRQAPGQGLEWMGGIIPIFGTANYAQKFQGRVTITADESTSTAYMELSSLRSEDTAVYYCARGGSSGWWWGQGTLVTVSSASTKGPSVFPLAPSSKSTSGGTAALGCLVKDYFPEPVTVSWNSGALTSGVHTFPAVLQSSGLYSLSSVVTVPSSSLGTQTYICNVNHKPSNTKVDKKVEPKSCDKTHTCPPCPAPEFEGGPSVFLFPPKPKDTLMISRTPEVTCVVVAVSHEDPEVKFNWYVDGVEVHNAKTKPREEQYNSTYRVVSVLTVLHQDWLNGKEYKCKVSNKALPAPIEKTISKAKGQPREPQVYTLPPSREEMTKNQVSLTCLVKGFYPSDIAVEWESNGQPENNYKTTPPVLDSDGSFFLYSKLTVDKSRWQQGNVFSCSVMHEALHNHYTQKSLSLSPGGGGGSGGGGSGGGGSGGGGSGGGGSGGGGSQSALTQPASVSGSPGQSITISCSGSSSNIGNNAVNWYQQLPGKAPKLLIYYDDLLPSGVSDRFSGSKSGTSAFLAISGLQSEDEADYYCAAWDDSLNGPVFGGGTKLTVLGGSGGSGGSGGSGGSGGSGGSQVQLVESGGGLVKPGGSLRLSCAASGFTFSSYGMHWVRQAPGKGLEWVAFIRYDGSNKYYADSVKGRFTISRDNSKNTLYLQMNSLRAEDTAVYYCAKDRGLGDGTYFDYWGQGTTVTVSS
light: QSVLTQPPSASGTPGQRVIISCSGSHSNIGSNNVNWYQQLPGTAPKLLIYNNNQRPSGVPDRFSGSKSGTSASLAISGLQSEDESDYFCGTWDDSLNGPVFGGGTKLTVLGQPKAAPSVTLFPPSSEELQANKATLVCLISDFYPGAVTVAWKADSSPVKAGVETTTPSKQSNNKYAASSYLSLTPEQWKSHRSYSCQVTHEGSTVEKTVAPTECS
  Efficacy [%] of target cell lysis at an E:T ratio of 5:1, COLO 205, NK cells not preloaded, antibody freshly added at 10 ug/mL: 33.5%
  Efficacy [%] of target cell lysis at an E:T ratio of 5:1, COLO 205, NK cells preloaded, frozen and thawed: 22.2%

B3: EpCAM/CD16A scFv-IgAb_80 (bispecific antibody)
heavy: QVQLVQSGAEVKKPGSSVKVSCKASGGTFSSYTISWVRQAPGQGLEWMGGIIPIFGTANYAQKFQGRVTITADESTSTAYMELSSLRSEDTAVYYCARGGSSGWWWGQGTLVTVSSASTKGPSVFPLAPSSKSTSGGTAALGCLVKDYFPEPVTVSWNSGALTSGVHTFPAVLQSSGLYSLSSVVTVPSSSLGTQTYICNVNHKPSNTKVDKKVEPKSCDKTHTCPPCPAPEFEGGPSVFLFPPKPKDTLMISRTPEVTCVVVAVSHEDPEVKFNWYVDGVEVHNAKTKPREEQYNSTYRVVSVLTVLHQDWLNGKEYKCKVSNKALPAPIEKTISKAKGQPREPQVYTLPPSREEMTKNQVSLTCLVKGFYPSDIAVEWESNGQPENNYKTTPPVLDSDGSFFLYSKLTVDKSRWQQGNVFSCSVMHEALHNHYTQKSLSLSPGGGGGSGGGGSGGGGSGGGGSGGGGSGGGGSSYVLTQPSSVSVAPGQTATISCGGHNIGSKNVHWYQQRPGQSPVLVIYQDNKRPSGIPERFSGSNSGNTATLTISGTQAMDEADYYCQVWDNYSVLFGGGTKLTVLGGSGGSGGSGGSGGSGGSGGSQVQLVQSGAEVKKPGESLKVSCKASGYTFTSYYMHWVRQAPGQGLEWMGAIEPMYGSTSYAQKFQGRVTMTRDTSTSTVYMELSSLRSEDTAVYYCARGSAYYYDFADYWGQGTLVTVSS
light: QSVLTQPPSASGTPGQRVIISCSGSHSNIGSNNVNWYQQLPGTAPKLLIYNNNQRPSGVPDRFSGSKSGTSASLAISGLQSEDESDYFCGTWDDSLNGPVFGGGTKLTVLGQPKAAPSVTLFPPSSEELQANKATLVCLISDFYPGAVTVAWKADSSPVKAGVETTTPSKQSNNKYAASSYLSLTPEQWKSHRSYSCQVTHEGSTVEKTVAPTECS
  Efficacy [%] of target cell lysis at an E:T ratio of 5:1, COLO 205, NK cells preloaded, frozen and thawed: 101%
